# Measured values as given in PMC4242493.
# Some of the results follow. The list includes weakly bound sequences.
# Target: MaxL homodimer (UniProt P61244)
# Assay: universal protein-binding microarray (PBM)
# Settings: PBS-based mixture, 10 nM His-tagged protein dimer, 2% milk, 200 ng/uL BSA, 50 ng/uL salmon testes DNA, 0.02% TX-100; detection with Alexa 488 anti-His …; high values mean tight binding; most listed sequences are background and not binding sites; double strand, one strand shown
# Chain of UniProt P61244 (P61244 whole entry): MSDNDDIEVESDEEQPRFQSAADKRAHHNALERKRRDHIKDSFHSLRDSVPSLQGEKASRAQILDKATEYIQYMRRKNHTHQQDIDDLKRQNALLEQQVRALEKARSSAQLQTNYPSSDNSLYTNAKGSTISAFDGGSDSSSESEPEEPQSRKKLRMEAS
row,Sequence,binding signal (normalized occupancy)
1,GCTAATGA,0.0804
2,ACTAAGAC,0.0733
3,CCCCTCTA,0.0742
4,AAATAAGC,0.0745
5,GATGAGAC,0.0717
6,AACAAGGC,0.0748
7,AAATTATG,0.0799
8,TCGGCACA,0.0774
9,ACGGAAGC,0.0733
10,AAAGCGTT,0.0746
11,CCTCTCCC,0.0727
12,CTTGACAC,0.0776
13,ATCAACTG,0.0748
14,AGCCTCGC,0.0797
15,AATAGAGG,0.0706
16,GGTTCGAC,0.0712
17,CAGTTTGG,0.0706
18,CGGAATTA,0.0751
19,GATGTATA,0.0841
20,TAACCCGA,0.0768
21,CGGCTGAG,0.0683
22,ACAATGGC,0.0783
23,GAAGGGAC,0.0676
24,GTCTGGAA,0.0804
25,GTAATAAC,0.0828

row,Sequence,binding signal (normalized occupancy)
1,ACTACTGA,0.0721
2,GGGTAGGA,0.0738
3,ACCCCGGT,0.0743
4,ACTGCCGG,0.0684
5,GGATGAGA,0.0761
6,AAGCATCA,0.076
7,GCATGACC,0.0988
8,ACTGTGCA,0.0781
9,CTAGCCCA,0.0746
10,CCGTTTTC,0.0725
11,CAGAAATC,0.0751
12,CTCGAGCA,0.0781
13,GCACGGAA,0.0719
14,CCGGTTGC,0.069
15,TCTAACCA,0.0757
16,TCGTACAA,0.0785
17,GCTATCGA,0.075
18,ACCCCAAC,0.0781
19,AACCCTTC,0.0746
20,CCAGAATA,0.0786
21,GCTGCGAA,0.0718
22,AAGGAGGG,0.0766
23,AGGAGTGC,0.0739
24,GACGGATC,0.0692
25,GAAAATGC,0.076

row,Sequence,binding signal (normalized occupancy)
1,ATTCCAGA,0.0779
2,CACAACAC,0.0821
3,GGTGGGAC,0.0719
4,TCCTTGAA,0.0749
5,AGATGTGG,0.0868
6,ACAATGCG,0.0867
7,AGTTGGAT,0.0766
8,ATATGGAC,0.0892
9,ACCGCACT,0.0707
10,GATGCATC,0.0787
11,CAGGATCC,0.0718
12,ACTTCCGG,0.0682
13,GGCCAGGA,0.0696
14,CAAAGATG,0.0737
15,AACAAGCA,0.0744
16,GAATATAA,0.0791
17,ACCCGCTA,0.0692
18,CTTGGACC,0.0707
19,GCCTTTCA,0.0716
20,ATTCAACC,0.0752
21,ACCGGTAT,0.0748
22,AGATAATA,0.0791
23,CGTAGTAC,0.0733
24,AGTAACTC,0.0742
25,CAAGTAGA,0.0752

row,Sequence,binding signal (normalized occupancy)
1,GCACGTCC,0.0788
2,GAAATGGA,0.0742
3,GTTATATA,0.0878
4,ACGGCCGT,0.0644
5,GGTACACA,0.0779
6,CATGCCAA,0.0927
7,AGCTCATG,0.0881
8,ACGGTCAT,0.0787
9,AAGAATGA,0.0754
10,CTGATGCC,0.0717
11,ACATTACT,0.0821
12,CATACTAC,0.0805
13,AGCCTGCA,0.0704
14,CTATCGAC,0.0767
15,CCAAAGAA,0.071
16,AAATGCAC,0.0827
17,ATAGTTCG,0.0764
18,CCGCAGAC,0.0709
19,CCCTGGCG,0.0693
20,AACCCGAG,0.0727
21,CACATCTC,0.0861
22,CAGTGCAC,0.0755
23,ATGAGACA,0.0828
24,CTCTCGAC,0.0727
25,GGCGAGGA,0.0746

row,Sequence,binding signal (normalized occupancy)
1,GAACGGGA,0.0721
2,CGGAGGTC,0.0744
3,ATGTACAT,0.0891
4,CCTCGGAC,0.0725
5,CGGAGCGA,0.0623
6,AAGCGCCT,0.073
7,AATTCGGA,0.0724
8,ATTAAAAC,0.0783
9,AAAGGACA,0.0747
10,GTGGAATA,0.0822
11,CAATGCCC,0.0771
12,CCAGCAAC,0.0739
13,AGCAACAA,0.0698
14,AAGCTTAG,0.0693
15,ATCGTAAC,0.0738
16,AAACCGTT,0.075
17,ATGCAGAC,0.0785
18,TCAGTGCA,0.0743
19,AACGCTGC,0.0786
20,GACGCCCC,0.0729
21,ATCACGAC,0.0753
22,GAGCCACA,0.0769
23,CAACCAGA,0.0757
24,ACAGATAT,0.0819
25,CCGTGGAC,0.0739

row,Sequence,binding signal (normalized occupancy)
1,TGACAGAA,0.0768
2,ATCCTTTG,0.0778
3,GCATAAAA,0.0781
4,CAAAATTA,0.0735
5,ATGCGTTC,0.0856
6,GCCTAGAC,0.0706
7,CCCTAGCG,0.0722
8,ATCCGGCG,0.0703
9,ACGATCCT,0.0794
10,AACTCTTG,0.0726
11,CTCTTTTC,0.0744
12,GAGGATAC,0.0836
13,GTGCGTAA,0.078
14,CCATCAGG,0.0773
15,AAGCGGAG,0.067
16,ACGCGCTG,0.077
17,ACATACTG,0.0824
18,AAAGCGTG,0.11
19,ACTAATTG,0.0791
20,CCAAGTTC,0.0732
21,GTCAATCA,0.0778
22,ATATTACG,0.0853
23,CCCCAATC,0.078
24,CACAGTCG,0.0705
25,GACCATCC,0.0844

row,Sequence,binding signal (normalized occupancy)
1,AGTAAGAG,0.0747
2,ACAGTCCC,0.0707
3,ACCTCTCC,0.0775
4,GAACGGCA,0.0699
5,AGTATTAG,0.0714
6,CAAGTTAA,0.071
7,AGGGAGAT,0.0742
8,CAGAATAG,0.0739
9,GTAGAATA,0.0826
10,CACGGGAC,0.0828
11,AGTACTGC,0.076
12,AAACTGCA,0.075
13,AAGGATAC,0.0777
14,ATACACGC,0.102
15,CCAGCTGC,0.0673
16,CACATCTA,0.084
17,AGCAGTGC,0.0756
18,AGCGTGTC,0.0932
19,AACTCTTC,0.0724
20,AGTCGTAT,0.0756
21,CGTTTCAC,0.0736
22,CGCAACCA,0.0787
23,CACCCTCC,0.0765
24,CCTATCTC,0.0785
25,AGTGCGAG,0.073

row,Sequence,binding signal (normalized occupancy)
1,AGTCTGAA,0.0685
2,AAAGGCAG,0.0731
3,AGTAGGAT,0.076
4,AGGAAACC,0.0712
5,GAGATACC,0.0724
6,AAAGCCTC,0.071
7,GACCCTTA,0.0785
8,GACGTAGA,0.0773
9,ATAGGCGC,0.0783
10,CCAACTGG,0.0679
11,ACAAGACC,0.0734
12,AATTAGCC,0.0676
13,AAAAGGAA,0.0699
14,ATGTCCCC,0.0822
15,AAGTAATA,0.0798
16,GCATTCAA,0.0748
17,CCTGGCCG,0.0702
18,ATCATGAA,0.0779
19,GGCCCGTA,0.0715
20,TCGCAAGA,0.0725
21,ATCCAGGA,0.076
22,ACCATATA,0.0814
23,ATGGGTCG,0.0768
24,AGGTAGCA,0.0778
25,CTGATCTC,0.0735

row,Sequence,binding signal (normalized occupancy)
1,AAAGCTTC,0.0688
2,GCCCCACA,0.0784
3,AGATGCCC,0.0786
4,CCGTCGGC,0.0671
5,AGGACTCC,0.0697
6,ACCCGAAA,0.0737
7,CGTCCAGC,0.0725
8,AAAGCCTA,0.0705
9,CGATGAGA,0.078
10,GACGCTGC,0.0724
11,CTTCTTCA,0.0712
12,AGTTAGGA,0.0725
13,ACACCGAT,0.0769
14,AGAGATGA,0.0744
15,ATCACTCA,0.0792
16,AAGCTATG,0.0712
17,GAACTCTC,0.071
18,ACCAGCTC,0.0671
19,CCATCACC,0.0798
20,CAACCACA,0.0806
21,CGCGTGGC,0.154
22,GAGCTGGC,0.0702
23,CGTATCTC,0.073
24,ATGCTATG,0.0837
25,GGTGGGCA,0.0841

row,Sequence,binding signal (normalized occupancy)
1,AGCAAAGG,0.0691
2,CCGATTAG,0.0723
3,CCTCGTTA,0.0752
4,CCCTGTCC,0.0739
5,GTTGTACA,0.0782
6,TGTGAGAA,0.0813
7,AAGGCACC,0.0717
8,ATAGATTC,0.0881
9,ATTTGGGA,0.0732
10,CAGGCTGC,0.0731
11,CCGCAGAA,0.0655
12,CGGATCCC,0.0737
13,GCCCATTA,0.0749
14,GGAGACTA,0.0726
15,AAGAGGAG,0.0702
16,CCATGGGC,0.0785
17,ATTATGTG,0.0836
18,CCCCGTTA,0.0766
19,GGGCGACA,0.0769
20,CCGGGCCA,0.0671
21,ACAGCTAT,0.0762
22,GATTAACC,0.075
23,ATAATTGA,0.0797
24,ATAATAAA,0.076
25,CTGCTCGA,0.071

row,Sequence,binding signal (normalized occupancy)
1,CACAATCA,0.0806
2,ACGGCAGG,0.0676
3,GCATGAGC,0.0948
4,ATCATCCA,0.086
5,CGTTCCCC,0.0749
6,AGATCCCC,0.0832
7,AGAGATTA,0.0751
8,CAGGGATG,0.0827
9,CCATCAAA,0.0773
10,GCGTCTAC,0.0694
11,CAAGTCTG,0.073
12,AGAAGGCT,0.0711
13,AAAAAATT,0.0746
14,CCGGTTCG,0.073
15,TCAGAGAA,0.073
16,CCGACTTC,0.067
17,GATGTCCA,0.0757
18,CATATCAC,0.0882
19,AATTACCA,0.0786
20,CTGTACCA,0.0765
21,GGCCAGCA,0.0747
22,CAAACGCC,0.0722
23,CCCTGACA,0.0822
24,AAGTTGGC,0.0715
25,GCCGGGGA,0.073

row,Sequence,binding signal (normalized occupancy)
1,AGTCAAGA,0.0758
2,CGCGTCAG,0.0721
3,TAAATGAA,0.077
4,CTCGGCAA,0.0681
5,TAGAGACA,0.0726
6,AGCGCCCT,0.0671
7,ATAGTCTG,0.0754
8,ATCGTGCG,0.0851
9,CGCCCTGA,0.0711
10,CATCCGTA,0.0744
11,CCAAGACA,0.0796
12,CATCACTA,0.0774
13,AACATGCG,0.101
14,GTTTCGGA,0.0744
15,AGCTACTG,0.0691
16,CATACGTA,0.0844
17,GTAAAACA,0.0763
18,CCCACGAA,0.0758
19,TATTATCA,0.0857
20,AGATGCGG,0.0753
21,AGCGAGGA,0.0736
22,CGGCGAAG,0.0671
23,TAAACACA,0.0817
24,CGAGGAGA,0.0753
25,CATTCGCC,0.0752

row,Sequence,binding signal (normalized occupancy)
1,TAGCTGCA,0.0763
2,ATCGGAGA,0.0709
3,CAGTCATC,0.0718
4,ATGACCTG,0.0798
5,CACATTGA,0.0932
6,CCCTGTAG,0.0763
7,ACCAGAAG,0.0788
8,CCCGACCA,0.0752
9,CAGCCAGG,0.0778
10,TATCAACA,0.0868
11,ATCCGTAC,0.0728
12,CGGTTAGC,0.0682
13,TCAAGTAA,0.0775
14,AATGTCGT,0.0786
15,AACTTACG,0.0727
16,ACTATTCG,0.0759
17,AGGATCGC,0.0781
18,CGCCACGA,0.0799
19,CGAGCTTA,0.0713
20,CCAGTGGC,0.069
21,AAACGCCT,0.073
22,AAGTGACT,0.0735
23,ATGGCAAA,0.0762
24,CGCTTATC,0.0755
25,GTGCCGTA,0.0787

row,Sequence,binding signal (normalized occupancy)
1,ATCGAGTC,0.0722
2,ACCGGAAC,0.0673
3,CGTGCATA,0.0922
4,ACAGGTGC,0.0832
5,CCACTTTA,0.074
6,CATCCAAC,0.0795
7,CTACAAGA,0.0752
8,CGGTAAAA,0.0692
9,CCACTAAC,0.0749
10,CGCCCCTC,0.0723
11,CACTAGTC,0.0808
12,CAGATTGA,0.0758
13,CTTAATCA,0.073
14,AACCTGAT,0.0838
15,ACTTCTCT,0.0761
16,ACGATCCC,0.0772
17,CCAATCAA,0.0793
18,ACTTACAC,0.078
19,ACGCAGCG,0.0707
